Measurements published in the supplement of paper PMC11876631.
± gives the standard deviation of the averaged measurements. Laboratory Escherichia coli strains with one amino-acid change in an essential protein, pooled on minimal glucose agar with carbenicillin or gentamicin at twice the control MIC (plus kanamycin and chloramphenicol for the plasmids), 48 h. Fold change of barcode share against drug-free plates; higher = less susceptible. Active = above 20 in both replicates (the paper's putatively resistant). '<' = one read or none on drug, '>' = one read or none on a drug-free plate. Shares are relative, so most strains fall below 1 when a few take over. Listed are strains with at least 15 reads on both drug-free plates, and hits; most hits rest on fewer reference reads. Replicate rank correlation about 0.5. Edits are read from barcodes.

B1: pheT; numbered along this chain (parent)
chain: MKFSELWLREWVNPAIDSDALANQITMAGLEVDGVEPVAGSFHGVVVGEVVECAQHPNADKLRVTKVNVGGDRLLDIVCGAPNCRQGLRVAVATIGAVLPGDFKIKAAKLRGEPSEGMLCSFSELGISDDHSGIIELPADAPIGTDIREYLKLDDNTIEISVTPNRADCLGIIGVARDVAVLNQLPLVQPEIVPVGATIDDTLPITVEAPEACPRYLGRVVKGINVKAPTPLWMKEKLRRCGIRSIDAVVDVTNYVLLELGQPMHAFDKDRIEGGIVVRMAKEGETLVLLDGTEAKLNADTLVIADHNKALAMGGIFGGEHSGVNDETQNVLLECAFFSPLSITGRARRHGLHTDASHRYERGVDPALQHKAMERATRLLIDICGGEAGPVIDITNEATLPKRATITLRRSKLDRLIGHHIADEQVTDILRRLGCEVTEGKDEWQAVAPSWRFDMEIEEDLVEEVARVYGYNNIPDEPVQASLIMGTHREADLSLKRVKTLLNDKGYQEVITYSFVDPKVQQMIHPGVEALLLPSPISVEMSAMRLSLWTGLLATVVYNQNRQQNRVRIFESGLRFVPDTQAPLGIRQDLMLAGVICGNRYEEHWNLAKETVDFYDLKGDLESVLDLTGKLNEVEFRAEANPALHPGQSAAIYLKGERIGFVGVVHPELERKLDLNGRTLVFELEWNKLADRVVPQAREISRFPANRRDIAVVVAENVPAADILSECKKVGVNQVVGVNLFDVYRGKGVAEGYKSLAISLILQDTSRTLEEEEIAATVAKCVEALKERFQASLRD
B2: pdxA; a variant is named by its letters at X, in order (parent)
chain: MVKTQRVVITPGEPAGIGPDLXVQLAQREWPVEXXXCADATLLTNRAAMLGLPLTLRPYSPNSPAQPQTAGTLTLLPVALRAPVTAGQLAVENGHYVVETXARACDGCLNGEFAALITGPVHKGVINDAGIPFTGHTEFFEERSQAKKVVMXLATEELRVALATTHLPLRDIADAITPALLHEVIAILHHDLRTKFGIAEPRILVCGLNPHAGEGGHMGTEEIDTIIPVLNELRAQGMKLNGPLPADTLFQPKYLDNADAVLAMYHDQGLPVLKYQGFGRGVNITLGLPFIRTSVDHGTALELAGRGKADVGSFITALNLAIKMIVNTQ
B3: pyrC; numbered along this chain (parent)
chain: MTAPSQVLKIRRPDDWHLHLRDGDMLKTVVPYTSEIYGRAIVMPNLAPPVTTVEAAVAYRQRILDAVPAGHDFTPLMTCYLTDSLDPNELERGFNEGVFTAAKLYPANATTNSSHGVTSIDAIMPVLERMEKIGMPLLVHGEVTHADIDIFDREARFIESVMEPLRQRLTALKVVFEHITTKDAADYVRDGNERLAATITPQHLMFNRNHMLVGGVRPHLYCLPILKRNIHQQALRELVASGFNRVFLGTDSAPHARHRKESSCGCAGCFNAPTALGSYATVFEEMNALQHFEAFCSVNGPQFYGLPVNDTFIELVREEQQVAESIALTDDTLVPFLAGETVRWSVKQ

Variants of: B1
Experiment: barcode share on antibiotic plates over drug-free plates; higher = less susceptible
Details: with Escherichia coli (laboratory strain); antibiotic: carbenicillin; 2× MIC (3.1 µg/mL)
Protocol: (§1)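 A pool of E. coli strains, each edited to carry one amino-acid change in an essential protein, was grown for 48 h on minimal glucose agar with or without antibiotic; strain barcodes were sequenced; mean of two replicates.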

Variant	fold change of barcode share
L217W	0.347 ± 0.073
L217D	0.425 ± 0.057
L217A	0.354 ± 0.0089
L257P	0.361 ± 0.037
L257A	0.214 ± 0.011
L257D	0.264 ± 0.12
L257W	0.231 ± 0.15
L257Q	0.4 ± 0.27
V714A	0.283 ± 0.05
V714Q	0.151 ± 0.079
V714P	0.267 ± 0.074
V713Q	0.229 ± 0.0062
V713A	0.319 ± 0.16
V712P	0.441 ± 0.0095
V712Q	0.332 ± 0.13
V712A	0.369 ± 0.16
V712W	0.718 ± 0.066

Same assay, conditions: with Escherichia coli (laboratory strain); antibiotic: gentamicin; 2× MIC (MIC 0.45 µg/mL)

Variant	fold change of barcode share
L217W	0.00413 ± 0.00058
L217D	0.00442 ± 0.0044
L217A	< 0.00134
L257P	0.00683 ± 0.0024
L257A	< 0.00831
L257D	0.0128 ± 0.0095
L257W	< 0.00477
L257Q	< 0.00735
V714A	< 0.00929
V713Q	< 0.00535
V713A	< 0.00787
V712P	< 0.00404
V712Q	0.0105 ± 0.0098
V712A	< 0.00772
V712W	< 0.00782

Variants of: B2
Experiment: as above
Details: with Escherichia coli (laboratory strain); antibiotic: carbenicillin; 2× MIC (3.1 µg/mL)
Protocol: as §1

Variant	fold change of barcode share
WLVVLM	0.743 ± 0.21
VLWVLM	0.36 ± 0.14
VLVDLM	0.395 ± 0.13
VQVVLM	0.359 ± 0.14
VLVQLM	0.35 ± 0.12
VPVVLM	0.381 ± 0.18
VLVVDM	0.468 ± 0.092
VLVVWM	0.517 ± 0.33
VLVVLM L153Q	0.427 ± 0.2
VLVVLM I226Q	0.489 ± 0.26
VLVVLM I226A	0.499 ± 0.027
QLVVLM	0.425 ± 0.2
VLVVQM	0.407 ± 0.18
ALVVLM	0.607 ± 0.067
PLVVLM	0.46 ± 0.1
VLVVAM	0.49 ± 0.15
VLVPLM	0.601 ± 0.15
VLVVPM	0.419 ± 0.06
VLVVLW	0.96785 ± 0.00055
VLVVLD	0.455 ± 0.12
VLVVLP	0.585 ± 0.3
VLVVLA	0.43 ± 0.043
VLVVLQ	0.4405 ± 0.002
DLVVLM	0.524 ± 0.22
VLVWLM	0.419 ± 0.038
VWVVLM	0.438 ± 0.14

Same assay, conditions: with Escherichia coli (laboratory strain); antibiotic: gentamicin; 2× MIC (MIC 0.45 µg/mL)

Variant	fold change of barcode share
WLVVLM	0.0362 ± 0.036
VLWVLM	0.00461 ± 0.0028
VLVDLM	0.00936 ± 0.0096
VQVVLM	< 0.004
VLVQLM	< 0.00283
VLVVDM	0.0226 ± 0.021
VLVVWM	< 0.0201
VLVVLM L153Q	0.0105 ± 0.0014
VLVVLM I226Q	< 0.00903
VLVVLM I226A	0.0152 ± 0.015
QLVVLM	0.00629 ± 0.0024
VLVVQM	0.0127 ± 0.0034
ALVVLM	0.0091 ± 0.0035
PLVVLM	< 0.00889
VLVVAM	0.0135 ± 0.0072
VLVPLM	0.00436 ± 0.00063
VLVVPM	0.0212 ± 0.0089
VLVVLW	< 0.0185
VLVVLD	< 0.0192
VLVVLA	< 0.0211
VLVVLQ	0.00978 ± 0.0056
DLVVLM	0.00833 ± 0.003
VLVWLM	< 0.0026
VWVVLM	< 0.00665

Variants of: B3
Experiment: as above
Details: with Escherichia coli (laboratory strain); antibiotic: carbenicillin; 2× MIC (3.1 µg/mL)
Protocol: as §1

Variant	fold change of barcode share
M130A	0.408 ± 0.14
M162A	0.4918 ± 0.0013
M162D	0.7 ± 0.065
M162P	2.2 ± 0.38
L20A	0.258 ± 0.095
L20P	0.484 ± 0.29
F176Q	0.359 ± 0.016
F247W	0.424 ± 0.035
F247A	0.458 ± 0.21
F247Q	0.688 ± 0.12

Same assay, conditions: with Escherichia coli (laboratory strain); antibiotic: gentamicin; 2× MIC (MIC 0.45 µg/mL)

Variant	fold change of barcode share
M130A	0.0139 ± 0.016
M162A	< 0.00292
M162D	0.00647 ± 0.0029
L20A	0.0394 ± 0.037
L20P	0.0382 ± 0.034
F176Q	< 0.0121
F176D	< 0.0213
F176A	< 0.0115
F176W	< 0.0163
F247W	0.00784 ± 0.0043
F247A	0.00507 ± 0.00024
F247Q	0.00992 ± 0.0021
